# According to the supplement of paper PMC12645437, “Orthogonal IMiD-Degron Pairs Induce Selective Protein Degradation in Cells” (ACS Chemical Biology, 2025):
# The list shows a part of the results.
# Target: no compound (DMSO)
# Test: log2 fold change of degron read counts, EGFP-low vs EGFP+ sorted cells; higher = lower degron-EGFP level without compound (poor expression or instability)
# Conditions: compound: DMSO control; 18 h
# 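Also: jurkat cells carrying a lentiviral library of mutant zinc finger degrons fused to EGFP plus mCherry, mCherry+ cells FACS sorted, degron abundance counted by next-generation sequencing.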
row,Sequence,log2 fold change of degron read counts
1,FACSVCGHAFTQKGNLLRHIKL,-0.745
2,FCCPVCGAEFTQKGNLLRHIKL,-0.775
3,FMCEVCGAGFTQKGNLLRHIKL,-0.999
4,FHCDVCGAIFTQKGNLLRHIKL,-1.5
5,FRCNQCGHDFTQKGNLLRHIKL,-0.988
6,FDCEICGANFTQKGNLLRHIKL,-1.89
7,FRCPQCGAVFTQKGNLLRHIKL,-0.903
8,LHCPICGFPCTQKGNLLRHIKL,1.54
9,FMCPICGRIFTQKGNLLRHIKL,0.731
10,LRCPICGFYCTQKGNLLRHIKL,1.95
11,FSCEQCGAKFTQKGNLLRHIKL,-1.32
12,LDCNQCGFVCTQKGNLLRHIKL,0.755
13,LWCEICGFNCTQKGNLLRHIKL,1.63
14,FQCNQCGHCFTQKGNLLRHIKL,-0.521
15,FNCDQCGAYFTQKGNLLRHIKL,-0.73
16,FNCNVCGARFTQKGNLLRHIKL,-0.565
17,FGCNQCGHIFTQKGNLLRHIKL,1.38
18,LFCNQCGFICTQKGNLLRHIKL,2.06
19,FQCNQCGHEFTQKGNLLRHIKL,-1.52
20,FICDQCGALFTQKGNLLRHIKL,-1.11
21,FQCEVCGAGFTQKGNLLRHIKL,-1.97
22,FECPICGAPFTQKGNLLRHIKL,-0.173
23,FYCEVCGANFTQKGNLLRHIKL,-0.952
24,FFCEICGAEFTQKGNLLRHIKL,-1.5
25,FGCEICGREFTQKGNLLRHIKL,-1.36

row,Sequence,log2 fold change of degron read counts
1,LKCEICGFWCTQKGNLLRHIKL,0.392
2,FNCEVCGATFTQKGNLLRHIKL,-2.01
3,FRCPICGHFFTQKGNLLRHIKL,0.344
4,FECPICGHVFTQKGNLLRHIKL,-1.03
5,FECEICGHIFTQKGNLLRHIKL,-1.82
6,FWCPICGAYFTQKGNLLRHIKL,1.97
7,FECPVCGAWFTQKGNLLRHIKL,-0.0501
8,FLCDICGAWFTQKGNLLRHIKL,-0.00669
9,FDCEICGHHFTQKGNLLRHIKL,-0.701
10,LSCPICGFICTQKGNLLRHIKL,1.04
11,FFCEICGHDFTQKGNLLRHIKL,-0.975
12,FRCPQCGANFTQKGNLLRHIKL,-0.911
13,LWCEICGFMCTQKGNLLRHIKL,1.9
14,LICPICGFRCTQKGNLLRHIKL,0.666
15,FICEQCGAAFTQKGNLLRHIKL,-1.61
16,LDCNQCGFGCTQKGNLLRHIKL,0.503
17,FRCPICGHVFTQKGNLLRHIKL,-0.205
18,FFCNQCGHPFTQKGNLLRHIKL,0.977
19,LRCNQCGFICTQKGNLLRHIKL,0.967
20,FRCNQCGRYFTQKGNLLRHIKL,0.186
21,FMCNVCGAGFTQKGNLLRHIKL,-0.301
22,FECEVCGATFTQKGNLLRHIKL,-1.85
23,LECNQCGFDCTQKGNLLRHIKL,-0.809
24,FHCNQCGHPFTQKGNLLRHIKL,0.178
25,FFCSVCGHRFTQKGNLLRHIKL,-0.00464
